Experiment [1] deals with T1, β2-adrenergic receptor (β2-AR) (Homo sapiens, UniProt P07550). Description: inhibition of calcium response to […] epinephrine in ADRB2/GNA15 Flp-In-293 cells. The class given is cell-based. The arrangement: gene ADRB2.
The target in experiment [2] is T1, β2-adrenergic receptor (β2-AR). Description: STD-NMR (STDD against membranes without recombinant β2-AR), […] glucose. The arrangement: gene ADRB2; membranes of Flp-In-293 cells stably transfected with human ADRB2 and GNA15.
The target is the same in experiment [3]. Description: dose-response of calcium signal, blocked by ICI […]. The class given is cell-based. The arrangement: gene ADRB2.

Results on 3 compounds are retold here after paper PMC9869975, “The β2-adrenergic receptor in the apical membrane of intestinal enterocytes senses sugars to stimulate glucose uptake from the gut” (Frontiers in Cell and Developmental Biology, 2023).

What is called IC50 is the concentration that gives 50% inhibition. For `CC(C)(C)NCC(O)COc1cccc2[nH]cc(CC(N)=O)c12` (stereo not drawn) [CD3-403], the IC50 in experiment [1] came out at 46 nM.

For `OC[C@H]1OC(O)[C@H](O)[C@@H](O)[C@@H]1O` (stereo partly drawn) [glucose], in experiment [2], the “STD-NMR (STDD against membranes without recombinant β2-AR), 10 mM glucose” value was “The difference STDD spectrum provides clear evidence for direct binding of glucose to the β 2-AR”.

The EC50 is the concentration giving half of the maximal effect. `OC[C@H]1O[C@H](O[C@H]2[C@H](O)[C@@H](O)[C@@H](O[C@H]3[C@H](O)[C@@H](O)C(O)O[C@@H]3CO)O[C@@H]2CO)[C@H](O)[C@@H](O)[C@@H]1O` (stereo partly drawn) [maltotriose]: in experiment [3], the EC50 is 10 mM.
